Here are results for 49 compounds from the supplement of paper PMC10670038.

The structures appear in SMILES notation. Where a name gives a salt, the structure may show the parent alone. ± gives the standard deviation of the averaged measurements. Over roughly 2,000 compounds, “relative cell viability vs DMSO, compound + 0.2 uM CuET” has its median near 1; the lowest 2% begin near 0.25. This is one part of the list.

The subject of this experiment is TE10. Kind of experiment: relative cell viability vs DMSO, compound + 0.2 uM CuET (fraction); TE10 is an esophageal squamous carcinoma line; higher = less cytotoxic. As to conditions: 2 µM; co-treatment: CuET (bis(diethyldithiocarbamate)copper) 0.2 uM; 48 h. The method, then: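 TE10 ESCC cells (1,000/well, 384-well plates) were treated with Selleck bioactive library compounds at 2 uM combined with 0.2 uM CuET (copper diethyldithiocarbamate) for 48 h. Viability was read by CellTiter-Glo and expressed relative to DMSO wells. Two technical replicates (A, B).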
For the compound `O=C(c1ccc(C(=O)N2CCC(N3CCCC3)CC2)c(Nc2ccccc2)c1)N1CCC(N2CCCC2)CC1`, the relative cell viability worked out at 1.19 ± 0.1.

For the compound `OC[C@H]1O[C@@H](Oc2ccc(O)cc2)[C@H](O)[C@@H](O)[C@@H]1O` [Arbutin], the relative cell viability came out at 1.05 ± 0.076.

Take `CN(C)CCc1c[nH]c2ccc(Cn3cncn3)cc12` [Rizatriptan Benzoate]: the relative cell viability turned out to be 1.14 ± 0.042.

As for `CC(c1cc2ccccc2s1)N(O)C(N)=O` (centres undefined) [Zileuton], the relative cell viability worked out at 1.282 ± 0.0068.

Consider `CC1=C(C(=O)OC2CCCCC2)C(c2ccc([N+](=O)[O-])cc2)C2=C(CC(C)(C)CC2=O)N1` (centres undefined), for which the relative cell viability worked out at 1 ± 0.075.

Take `C[C@@H]1C(=O)O[C@H]2C[C@@]34[C@H]5C[C@@H](C(C)(C)C)[C@]36[C@@H](OC(=O)[C@@H]6O)O[C@@]4(C(=O)O5)[C@]21O` [Ginkgolide A]: the relative cell viability was determined as 1 ± 0.025.

For the compound `NC(=O)c1ncn([C@@H]2O[C@H](CO)[C@@H](O)[C@H]2O)c1N` [Acadesine], the relative cell viability was determined as 0.967 ± 0.043.

Regarding `O=c1[nH]c(=O)n([C@H]2C[C@H](O)[C@@H](CO)O2)cc1F` [Floxuridine], the relative cell viability was found to be 1.1921 ± 0.00061.

`C[N+]1(C)CCC(=C(c2ccccc2)c2ccccc2)CC1` [Diphemanil Methylsulfate]: the relative cell viability worked out at 1.25 ± 0.088.

Take `COc1cc(/C=C/C(=O)O)ccc1O` [Ferulic Acid]: the relative cell viability came to 1.21 ± 0.12.

Take `O=C1C(=O)N(Cc2ccc(Cl)c(Cl)c2)c2ccccc21` [Apoptosis Activator 2]: the relative cell viability came out at 0.803 ± 0.059.

With `O=C(NC1CCOCC1)c1ccc(-c2cc(-c3c[nH]nc3-c3ccccn3)ccn2)cc1`, the relative cell viability came out at 1.12 ± 0.06.

In the case of `NS(=O)(=O)c1cc2c(cc1Cl)NCNS2(=O)=O` [Hydrochlorothiazide], the relative cell viability turned out to be 1.08 ± 0.11.

Regarding `CN(C)CCC=C1c2ccccc2C=Cc2ccccc21` [Cyclobenzaprine HCl], the relative cell viability amounted to 1.1 ± 0.14.

Consider `O=C1c2cccc(O)c2C(=O)c2c(O)cc(CO)cc21` [Aloe-emodin], for which the relative cell viability came to 1.02 ± 0.11.

In the case of `CN(C)CCc1c[nH]c2ccc(C[C@H]3COC(=O)N3)cc12` [Zolmitriptan], the relative cell viability came to 0.982 ± 0.026.

Take `CC(C)(F)C[C@H](N[C@@H](c1ccc(-c2ccc(S(C)(=O)=O)cc2)cc1)C(F)(F)F)C(=O)NC1(C#N)CC1` [Odanacatib (MK-0822)]: the relative cell viability is 0.77 ± 0.42.

On to `COc1cc(C)c(/C=C/C(C)=C/C=C/C(C)=C/C(=O)O)c(C)c1C` [Acitretin], for which the relative cell viability turned out to be 1.14 ± 0.12.

With `CNC(=O)c1nn(C)c2c1C(C)(C)Cc1cnc(Nc3ccc(N4CCN(C)CC4)cc3)nc1-2`, the relative cell viability was found to be 0.753 ± 0.028.

Regarding `CC(C)(O)CC[C@@H](O)[C@](C)(O)[C@H]1CC[C@@]2(O)C3=CC(=O)[C@@H]4C[C@@H](O)[C@@H](O)C[C@]4(C)[C@H]3CC[C@]12C` [20-Hydroxyecdysone], the relative cell viability worked out at 1.107 ± 0.0052.

Consider `CN[C@@H](C)C(=O)N[C@H](C(=O)N1CCC[C@H]1C(=O)Nc1snnc1-c1ccccc1)C1CCCCC1`, for which the relative cell viability is 0.732 ± 0.045.

For the compound `COc1cc2nc(N3CCN(C(=O)C4CCCO4)CC3)nc(N)c2cc1OC` (centres undefined) [Terazosin HCl], the relative cell viability is 0.9374 ± 0.008.

Turning to `CN1CCN(c2cccc(Nc3nc4c(-c5ccc(S(C)(=O)=O)cc5)cccn4n3)c2)CC1`, the relative cell viability worked out at 0.887 ± 0.064.

As to `CCCCC(=O)O[C@]1(C(=O)CO)[C@@H](C)C[C@H]2[C@@H]3CCC4=CC(=O)C=C[C@]4(C)[C@@]3(F)[C@@H](O)C[C@@]21C` [Betamethasone valerate (Betnovate)], the relative cell viability turned out to be 1.08 ± 0.053.

`CC(=O)OCC(=O)[C@@]1(O)CC[C@H]2[C@@H]3CCC4=CC(=O)CC[C@]4(C)[C@H]3C(=O)C[C@@]21C` [Cortisone acetate]: the relative cell viability stood at 1.16 ± 0.061.

Regarding `CC(C)(C)c1cc(C(=O)C(C#N)=NNc2cccc(Cl)c2)no1`, the relative cell viability is 0.924 ± 0.025.

Regarding `OC[C@@H](O)[C@@H](O)[C@H](O)[C@@H](O)CO` [Sorbitol], the relative cell viability turned out to be 1.136 ± 0.008.

Turning to `O=C1c2c(O)cc(O)cc2OC(c2ccc(O)c(O)c2)C1O` (centres undefined) [Taxifolin (Dihydroquercetin)], the relative cell viability stood at 1.04 ± 0.022.

Turning to `CN(C)CCCOc1nn(Cc2ccccc2)c2ccccc12` [Benzydamine HCl], the relative cell viability came out at 1.12 ± 0.12.

Regarding `FC(F)(F)c1ccc(/C=C/c2nc(COc3ccc(CCCCn4ccnn4)cc3)co2)cc1` [Mubritinib (TAK 165)], the relative cell viability came out at 1.07 ± 0.087.

For the compound `CC(Oc1cc(-c2cnn(C3CCNCC3)c2)cnc1N)c1c(Cl)ccc(F)c1Cl` [(S)-crizotinib], the relative cell viability was determined as 1.12 ± 0.028.

As for `Cc1cn([C@@H]2C[C@@H](O)[C@H](CO)O2)c(=O)[nH]c1=O` [Telbivudine], the relative cell viability is 1.02 ± 0.027.

As to `O=C(N/N=C/c1ccc([N+](=O)[O-])o1)c1ccc(O)cc1` [Nifuroxazide], the relative cell viability came out at 1.3 ± 0.017.

For the compound `Cc1cc(NC(=O)c2cccc(NC(=O)/C=C/CN(C)C)c2)ccc1Nc1nccc(-c2cccnc2)n1`, the relative cell viability stood at 0.782 ± 0.13.

Turning to `Cc1cccc(Nc2cc(Cl)nc(SCC(=O)O)n2)c1C`, the relative cell viability amounted to 1.2 ± 0.019.

With `O=C(NC(NC(=S)Nc1ccc(F)c([N+](=O)[O-])c1)C(Cl)(Cl)Cl)C(c1ccccc1)c1ccccc1` (centres undefined), the relative cell viability was determined as 0.726 ± 0.0092.

For the compound `OCc1ccc(O[C@@H]2O[C@H](CO)[C@@H](O)[C@H](O)[C@H]2O)cc1` [Gastrodin], the relative cell viability came out at 1.08 ± 0.029.

As for `Cn1cc(C2=C(c3ccc(Cl)cc3Cl)C(=O)NC2=O)c2ccccc21`, the relative cell viability was 1.22 ± 0.013.

In the case of `CCc1cc(C(N)=S)ccn1` [Ethionamide], the relative cell viability turned out to be 1.13 ± 0.2.

Regarding `CCc1c2c(nc3ccc(OC(=O)N4CCC(N5CCCCC5)CC4)cc13)-c1cc3c(c(=O)n1C2)COC(=O)[C@]3(O)CC` [Irinotecan HCl Trihydrate], the relative cell viability was 1.063 ± 0.0017.

Turning to `CCc1c2c(nc3ccc(OC(=O)N4CCC(N5CCCCC5)CC4)cc13)-c1cc3c(c(=O)n1C2)COC(=O)[C@]3(O)CC` [Irinotecan], the relative cell viability amounted to 1.06 ± 0.028.

For `OC[C@H]1O[C@@H](OCCc2ccc(O)cc2)[C@H](O)[C@@H](O)[C@@H]1O` [Salidroside], the relative cell viability was 1.09 ± 0.11.

Consider `C[C@H]1[C@H](NC(=O)/C(=N\OC(C)(C)C(=O)O)c2csc(N)n2)C(=O)N1S(=O)(=O)O` [Aztreonam], for which the relative cell viability came to 1.04 ± 0.024.

Take `COC(=O)c1ccc2c(c1)[nH]c1ncnc(NCCCN3CCCCC3)c12`: the relative cell viability worked out at 0.91861 ± 0.0008.

Consider `CCOC(=O)NCCCC(=O)NCCc1ccccc1`, for which the relative cell viability stood at 1.18 ± 0.12.

As to `CCC[C@H](NC(=O)/C(C#N)=C/c1cccc(Br)n1)c1ccccc1` [Degrasyn (WP1130)], the relative cell viability amounted to 0.4245 ± 0.00065.

With `COc1cc2c(cc1NS(=O)(=O)c1ccc(Br)cc1C)n(C)c(=O)n2C`, the relative cell viability amounted to 1.17 ± 0.15.

Regarding `COc1cc(NC(=O)c2ccc(-c3ccc(Cl)cc3)o2)cc(OC)c1`, the relative cell viability was 0.906 ± 0.036.

For `CCOC(=O)CCC(=O)O[C@H]1[C@H](O[C@@H]2[C@@H](C)[C@H](O[C@H]3C[C@@](C)(OC)[C@@H](O)[C@H](C)O3)[C@@H](C)C(=O)O[C@H](CC)[C@@](C)(O)[C@H](O)[C@@H](C)C(=O)[C@H](C)C[C@@]2(C)O)O[C@H](C)C[C@@H]1N(C)C` [Erythromycin Ethylsuccinate], the relative cell viability turned out to be 1 ± 0.1.
